# According to publication PMC4336329 (PLoS ONE, 2015):
# The whole screen tested about 310,000 compounds, of which about 2,200 (0.71%) showed an effect of 50% or more. Effects have a minus sign here. The list shows a part of the results.
# Molecular target: human ether-à-go-go-related gene (hERG) potassium channel (human, UniProt Q12809)
# Assay: primary screen, population patch clamp on CHO cells stably expressing hERG
# Sequence of human ether-à-go-go-related gene (hERG) potassium channel (Q12809 whole entry, looked up): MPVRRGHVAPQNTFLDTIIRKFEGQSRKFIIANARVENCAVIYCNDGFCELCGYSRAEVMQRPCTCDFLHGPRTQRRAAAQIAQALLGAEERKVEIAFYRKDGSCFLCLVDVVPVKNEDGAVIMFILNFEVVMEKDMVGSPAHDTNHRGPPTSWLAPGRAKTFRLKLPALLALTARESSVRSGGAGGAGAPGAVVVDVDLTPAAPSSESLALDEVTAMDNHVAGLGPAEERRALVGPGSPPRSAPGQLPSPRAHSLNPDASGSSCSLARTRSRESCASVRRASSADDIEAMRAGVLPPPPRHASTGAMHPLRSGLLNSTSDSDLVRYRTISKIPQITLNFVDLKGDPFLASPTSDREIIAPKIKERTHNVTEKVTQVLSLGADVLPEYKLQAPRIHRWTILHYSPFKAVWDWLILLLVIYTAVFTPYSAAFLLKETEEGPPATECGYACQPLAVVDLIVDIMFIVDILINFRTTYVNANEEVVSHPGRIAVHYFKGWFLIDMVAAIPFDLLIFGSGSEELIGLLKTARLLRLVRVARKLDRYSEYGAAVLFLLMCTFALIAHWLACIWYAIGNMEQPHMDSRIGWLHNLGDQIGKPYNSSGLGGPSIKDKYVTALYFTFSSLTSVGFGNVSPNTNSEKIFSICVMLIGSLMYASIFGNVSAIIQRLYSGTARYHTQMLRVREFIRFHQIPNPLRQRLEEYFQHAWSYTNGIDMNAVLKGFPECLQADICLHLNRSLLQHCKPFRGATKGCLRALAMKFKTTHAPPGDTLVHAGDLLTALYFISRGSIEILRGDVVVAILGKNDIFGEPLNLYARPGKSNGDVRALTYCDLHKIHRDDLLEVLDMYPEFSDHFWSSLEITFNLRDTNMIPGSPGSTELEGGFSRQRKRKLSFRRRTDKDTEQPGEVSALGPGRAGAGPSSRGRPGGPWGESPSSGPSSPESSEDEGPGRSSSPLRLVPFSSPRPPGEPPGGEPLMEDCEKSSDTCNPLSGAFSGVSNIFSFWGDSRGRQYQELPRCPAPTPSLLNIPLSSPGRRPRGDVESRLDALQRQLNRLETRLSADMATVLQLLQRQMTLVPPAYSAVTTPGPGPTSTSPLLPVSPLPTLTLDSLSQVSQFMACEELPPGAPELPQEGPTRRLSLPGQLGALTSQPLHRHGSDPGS
row,SMILES,"hERG current change (%, negative = inhibition) at 1uM [%]"
1,Cc1onc(-c2ccccc2)c1CNS(=O)(=O)c1ccccc1,11.9
2,Cc1ccc(Cl)cc1NS(=O)(=O)c1c(C)[nH]c(=O)[nH]c1=O,1.66
3,COC(=O)c1cccc(NC(=O)c2cccc(N3C(=O)CCC3=O)c2)c1,3.15
4,O=C(NCCN1C(=O)S/C(=C\c2ccc(Cl)c([N+](=O)[O-])c2)C1=O)C1=COCCO1,7.93
5,COC(=O)C1=CN(Cc2ccc(OC)cc2)C=C(C(=O)OC)C1c1cccs1,10.5
6,N#Cc1ccccc1S(=O)(=O)N1CCN(C(=O)[C@@H]2CCCN2C(=O)c2cccs2)CC1,0.267
7,Cc1cccc(NC(=O)Cn2cc([N+](=O)[O-])cn2)n1,6.91
8,CCCNNC(=O)C(O)(c1ccccc1)c1ccccc1,15.1
9,COC(=O)c1cnn2c(C(F)(F)F)cc(-c3ccccc3)nc12,8.63
10,Cc1cc(OCC(=O)NCCc2c[nH]c3ccccc23)c2c(C)c(C)c(=O)oc2c1,6.8
11,O=C(C1CC(=O)N(c2ccccc2)C1)N1CCN(c2ccc(F)cc2)CC1 (stereo not shown),-8.63
12,COc1ccc(/C=C/C(=O)NC(=S)NNC(=O)Cc2cccs2)cc1OC,11.9
13,Cc1c(C(=O)N2CCN(c3ccccc3F)CC2)sc2nc(-c3ccccc3)cn12,2.98
14,CN1C(=O)C(C)(C)c2cc(S(=O)(=O)NCc3ccc(C(=O)NCc4ccco4)cc3)ccc21,12.6
15,COc1cccc(CN2CCNCC2)c1OC,12.2
16,O=C(CN1CCN(Cc2ccccc2)CC1)Nc1ccc(N2CCOCC2)cc1,8.88
17,COc1cccc(C(=O)NCCS(=O)(=O)N2CCc3ccccc3C2)c1,-1.2
18,C=CCSc1nc(N)c2c3c(sc2n1)CN(C)CC3,-4.65
19,COc1cccc2c(=O)c3ccccc3oc12,13.5
20,CCOc1ccc(Oc2ccccc2NC(=O)CN2C(=O)NC3(CCCC3)C2=O)cc1,4.63
21,CC12CCC(C(=O)Nc3ccccc3-n3cccc3)(CC1=O)C2(C)C (stereo not shown),5.32
22,COc1ccc(N2CCN(CC(O)COc3cc(C)cc(C)c3)CC2)cc1.Cl (stereo not shown),-17.5
23,Cc1cccc(OCC(=O)Nc2ccc(S(=O)(=O)Nc3ccccn3)cc2)c1,17.3
24,CCn1c(=NC(=O)CSC(C)=O)sc2cc(F)ccc21,-3.73
25,CC(C)C[C@H]1CN=C(Nc2ccccc2)N1CCCC1CCCC1,-24.5
26,NC(=O)CSc1oc(-c2cccs2)nc1S(=O)(=O)c1ccccc1,1.53
27,c1ccc(-n2cnc3cc(NCc4ccco4)ccc32)cc1,-3.38
28,CCCc1ccc2oc(C(=O)N(C)Cc3cnccn3)c(C)c2c1,1.37

row,SMILES,"hERG current change (%, negative = inhibition) at 1uM [%]"
1,CC(C)[C@H](NC(=O)c1ccc(F)cc1)C(=O)N(C)Cc1cccs1,3.19
2,C=C(C)C1CC=C(C)/C(=N/NC(=O)c2ccccc2[N+](=O)[O-])C1 (stereo not shown),12.4
3,COC(=O)C1C(=O)c2c(n[nH]c2C)CC1(C)C (stereo not shown),20.9
4,CC1CC(C)(C)NC(=S)N1CCCC(=O)N1CCN(c2ccc(F)cc2)CC1 (stereo not shown),-4.06
5,CCC(=O)N1CCc2cc(S(=O)(=O)NCCN3CCCCC3CC)ccc21 (stereo not shown),-10.7
6,CCC1CCCCN1CCCNC(=O)c1ccc(CS(=O)(=O)Cc2ccc(Cl)cc2)o1 (stereo not shown),12
7,COc1cc(C(C)=O)ccc1OC(=O)C(C)N1C(=O)c2ccccc2C1=O (stereo not shown),10.7
8,C/[N+]([O-])=C\c1coc2ccccc2c1=O,4.01
9,CC(C)Cn1c(O)c2ccc(C(=O)N=NC(=O)c3cccnc3)cc2c1O,13.1
10,COCCN(C(=O)/C=C/c1cccc([N+](=O)[O-])c1)c1c(N)n(Cc2ccccc2)c(=O)[nH]c1=O,5.6
11,Cc1ccc(-c2nnc(CN3CCN(C)CC3)o2)cc1,7.19
12,O=C(Nc1cccc(S(=O)(=O)N2CCOCC2)c1)c1cnccn1,-2.2
13,CCOc1ccc(CCNC(=O)C2=C(C)C(=O)OC23CCCCC3)cc1OCC,16.9
14,Cl.OCCCNCc1ccc(-c2ccccc2)cc1,6.55
15,COc1ccc(OCC(O)Cn2c(N)nc3c2c(=O)[nH]c(=O)n3C)cc1 (stereo not shown),9.31
16,O=C(COc1ccccc1)NCC(=O)N/N=C/c1cc(Br)ccc1OCc1ccccc1,10.1
17,COc1cc2c(cc1OC)C(c1c(O)n(CCc3ccccc3)c(=S)[nH]c1=O)NCC2 (stereo not shown),13
18,O=C1NC(=O)N(CCNc2ncc(C(F)(F)F)cc2Cl)C(=O)C1Cc1ccc(Cl)cc1 (stereo not shown),14.1
19,COc1ccc(Br)cc1C(=O)Nc1ccc(N2CCCC2)cc1,19.1
20,COCCC(=O)N1CCC(Oc2ccc(C(=O)N3CCCC(OC)C3)cc2)CC1 (stereo not shown),5.47
21,Cc1ccc(S(=O)(=O)N2CCC(C(=O)Nc3ccc(C(C)C)cc3)CC2)cc1,0.0163
22,O=C(NCC(=O)N1CCN(c2ccccc2)CC1)c1cccs1,1.14
23,COc1ccc(NC(C)=O)cc1CNC(=O)COc1c(C)c(C)cc(C)c1C,13.6
24,CCN1CCN(C(=O)c2cc3cc4cc(OC)ccc4nc3s2)CC1,-4.27
25,Cc1nn(Cc2c(F)c(F)c(F)c(F)c2F)c(C)c1NC(=O)c1nn(C)c(C)c1Br,-6.03
26,COC(=O)c1cc(NC(=O)c2cccc(Cl)c2)c(=O)oc1/C=C/Nc1cc(C)cc(C)c1,13.2
27,CN(Cc1ccccc1)S(=O)(=O)c1ccc(OCC(=O)NCc2cccnc2)cc1,14.9
